Reference: a collection of fitness landscapes (doi:10.1126/science.1257360)
The list shows a part of the results.

B1: PhoQ; a variant is named by its letters at X, in order, P23837 (parent)
chain: MKKLLRLFFPLSLRVRFLLATAAVVLVLSLAYGMVALIGYSVSFDKTTFRLLRGESNLFYTLAKWENNKLHVELPENIDKQSPTMTLIYDENGQLLWAQRDVPWLMKMIQPDWLKSNGFHEIEADVNDTSLLLSGDHSIQQQLQEVREDDDDAEMTHSVAVNVYPATSRMPKLTIVVVDTIPVELKSSYMVWSWFIYVLSANLLLVIPLLWVAAWWSLRPIEALAKEVRELEEHNRELLNPATTRELTSLVRNLNRLLKSERERYDKYRTTLTDLTHSLKTPLXXLQXXLRSLRSEKMSVSDAEPVMLEQISRISQQIGYYLHRASMRGGTLLSRELHPVAPLLDNLTSALNKVYQRKGVNISLDISPEISFVGEQNDFVEVMGNVLDNACKYCLEFVEISARQTDEHLYIVVEDDGPGIPLSKREVIFDRGQRVDTLRPGQGVGLAVAREITEQYEGKIVAGESMLGGARMEVIFGRQHSAPKDE

Variants of: B1
Experiment: enrichment ratio after two sorts for PhoP signalling (ratio (wild type AVST 3.29)); higher = more functional
Details: with PhoP (E. coli)

Row | Variant | enrichment ratio
1 | EKYW | ≤ 0.25
2 | WPNR | ≤ 0.25
3 | KFAG | ≤ 0.25
4 | KSDL | ≤ 0.25
5 | HWAD | ≤ 0.25
6 | YMFW | ≤ 0.25
7 | SLKQ | ≤ 0.25
8 | SYIL | ≤ 0.25
9 | NYTR | ≤ 0.25
10 | KTNF | ≤ 0.25
11 | PYAY | ≤ 0.25
12 | MMMV | ≤ 0.25
13 | SCFM | 0.373
14 | RVYT | ≤ 0.25
15 | ENSD | ≤ 0.25
16 | FRME | ≤ 0.25
17 | GVPT | ≤ 0.25
18 | HMMM | ≤ 0.25
19 | ESPW | ≤ 0.25
20 | THNQ | 30.9
21 | IFYE | ≤ 0.25
22 | HRVN | ≤ 0.25
23 | MSAS | 12.6
24 | KNQL | ≤ 0.25
25 | RFST | ≤ 0.25

Row | Variant | enrichment ratio
26 | KDHI | ≤ 0.25
27 | IVNG | ≤ 0.25
28 | NKVF | ≤ 0.25
29 | VDNE | ≤ 0.25
30 | QMAC | ≤ 0.25
31 | GYDN | ≤ 0.25
32 | MYDV | ≤ 0.25
33 | QMCM | ≤ 0.25
34 | LWHP | ≤ 0.25
35 | NFNE | ≤ 0.25
36 | HYKH | ≤ 0.25
37 | PSGP | ≤ 0.25
38 | TEHF | 3.55
39 | DQAK | ≤ 0.25
40 | ANPY | ≤ 0.25
41 | VGTI | ≤ 0.25
42 | WKRN | ≤ 0.25
43 | SIEK | ≤ 0.25
44 | HIWQ | ≤ 0.25
45 | AHFS | ≤ 0.25
46 | ETLM | ≤ 0.25
47 | ANRR | ≤ 0.25
48 | CYSS | ≤ 0.25
49 | AFRS | ≤ 0.25
50 | NWCH | ≤ 0.25

Row | Variant | enrichment ratio
51 | VAVY | ≤ 0.25
52 | RVPS | ≤ 0.25
53 | SGCG | 8.56
54 | VMFH | ≤ 0.25
55 | VFTG | ≤ 0.25
56 | KYFK | ≤ 0.25
57 | HAGK | ≤ 0.25
58 | NPGA | ≤ 0.25
59 | LGWQ | 2.87
60 | WDNA | ≤ 0.25
61 | HQEE | ≤ 0.25
62 | ITVS | ≤ 0.25
63 | NPEC | ≤ 0.25
64 | AFMK | ≤ 0.25
65 | GDHQ | ≤ 0.25
66 | VWIE | ≤ 0.25
67 | LDHS | ≤ 0.25
68 | KADV | ≤ 0.25
69 | VNYG | ≤ 0.25
70 | PRAN | ≤ 0.25
71 | SQEP | ≤ 0.25
72 | KYKY | ≤ 0.25
73 | QSPS | ≤ 0.25
74 | LTAN | ≤ 0.25
75 | TKFK | ≤ 0.25

Row | Variant | enrichment ratio
76 | RFVG | ≤ 0.25
77 | EHDY | ≤ 0.25
78 | CTSG | ≤ 0.25
79 | FHRM | ≤ 0.25
80 | VYFV | ≤ 0.25
81 | NDNR | ≤ 0.25
82 | LNYP | ≤ 0.25
83 | KMLG | ≤ 0.25
84 | WHSV | ≤ 0.25
85 | YRSW | ≤ 0.25
86 | TYRY | ≤ 0.25
87 | QHLH | ≤ 0.25
88 | HHFA | ≤ 0.25
89 | GDDY | ≤ 0.25
90 | MTHT | ≤ 0.25
91 | IRQK | ≤ 0.25
92 | NHYD | ≤ 0.25
93 | SEAS | 26.6
94 | NKRV | ≤ 0.25
95 | REQA | ≤ 0.25
96 | RSGC | ≤ 0.25
97 | EYPR | ≤ 0.25
98 | SNMW | 3.59
99 | SADC | ≤ 0.25
100 | YNQT | ≤ 0.25

Row | Variant | enrichment ratio
101 | GEGH | ≤ 0.25
102 | KQWD | ≤ 0.25
103 | SWEH | ≤ 0.25
104 | MKEN | ≤ 0.25
105 | DQHM | ≤ 0.25
106 | VWPW | ≤ 0.25
107 | EEIT | ≤ 0.25
108 | WAFV | ≤ 0.25
109 | LKYQ | ≤ 0.25
110 | GWYH | ≤ 0.25
111 | AECA | 42.4
112 | TDCY | 9.9
113 | AKFE | ≤ 0.25
114 | EIVR | ≤ 0.25
115 | WTSA | ≤ 0.25
116 | YHPK | ≤ 0.25
117 | FLSE | ≤ 0.25
118 | AKGN | ≤ 0.25
119 | MHDE | ≤ 0.25
120 | WKAT | ≤ 0.25
121 | VCQK | ≤ 0.25
122 | WQSI | ≤ 0.25
123 | FKGR | ≤ 0.25
124 | VTEG | ≤ 0.25
125 | AEAI | 14.2

Row | Variant | enrichment ratio
126 | NPKK | ≤ 0.25
127 | NRLI | ≤ 0.25
128 | SAMC | 18.1
129 | DIQQ | ≤ 0.25
130 | NGMI | 0.49
131 | SSHQ | ≤ 0.25
132 | YQYT | ≤ 0.25
133 | DKSG | ≤ 0.25
134 | WQTQ | ≤ 0.25
135 | TYNF | ≤ 0.25
136 | DEGY | ≤ 0.25
137 | TDVN | 1.05
138 | MQVA | ≤ 0.25
139 | ATQR | ≤ 0.25
140 | WLTA | ≤ 0.25
141 | WGKL | ≤ 0.25
142 | QYQE | ≤ 0.25
143 | IISL | ≤ 0.25
144 | TWEP | ≤ 0.25
145 | VNTH | ≤ 0.25
146 | GKAS | ≤ 0.25
147 | SECC | 38
148 | IFLT | ≤ 0.25
149 | LLHA | ≤ 0.25
150 | FTCT | ≤ 0.25

Row | Variant | enrichment ratio
151 | MGPL | ≤ 0.25
152 | PVWF | ≤ 0.25
153 | PPPR | ≤ 0.25
154 | RDYW | ≤ 0.25
155 | QFFI | ≤ 0.25
156 | SMRK | ≤ 0.25
157 | DHPK | ≤ 0.25
158 | SEVC | 9.44
159 | HLRL | ≤ 0.25
160 | LDHI | ≤ 0.25
161 | YYKI | ≤ 0.25
162 | HKYS | ≤ 0.25
163 | AVSC | 12.2
164 | AEAV | 15.8
165 | GSAD | ≤ 0.25
166 | TPHA | ≤ 0.25
167 | GEVH | 3.28
168 | GMCN | 13.6
169 | GSII | 5.86
170 | WSGF | ≤ 0.25
171 | IQPH | ≤ 0.25
172 | AAQL | ≤ 0.25
173 | WMTR | ≤ 0.25
174 | SNNN | 16.8
175 | MKCK | ≤ 0.25

Row | Variant | enrichment ratio
176 | DYIQ | ≤ 0.25
177 | DVIV | ≤ 0.25
178 | RLHN | ≤ 0.25
179 | YYKG | ≤ 0.25
180 | HTRW | ≤ 0.25
181 | RSVH | ≤ 0.25
182 | MVFR | ≤ 0.25
183 | SCCC | 5.65
184 | DNPD | ≤ 0.25
185 | FVTS | 0.605
186 | DRYN | ≤ 0.25
187 | RSRD | ≤ 0.25
188 | WALG | ≤ 0.25
189 | DWLH | ≤ 0.25
190 | IGAM | ≤ 0.25
191 | LQSW | ≤ 0.25
192 | GMEV | ≤ 0.25
193 | FYGQ | 0.428
194 | GWWE | ≤ 0.25
195 | EDWM | ≤ 0.25
